Measurements as given in PMC12136788.
This is one part of the list.

B1: chr22:28629602:28629705:-|CDS|ENSG00000100154|unk|FALSE|unique (ssRNA)
RNA: GGGAGUUCUACAGUCCGACGAUCAUUGUUCUGUAUAAUGAAGCCCUGGCUGUUGACCCUCAGAACUGCAUCUUAUACAGCAAUAGAUCUGCAGCCUACAUGAAAAUCCAGCAGUAUGACAAGGCACUGGAUGAUGCAAUCAAACAACAGAGGAUUGAGCAUCA
B2: chr17:44352837:44352938:+|3pUTR|ENSG00000030582|unk|FALSE|unique (ssRNA)
RNA: GGGAGUUCUACAGUCCGACGAUCCUGAAGACUCUGCAGCCCUCGGGACCCCACUCGGAGGGUGCCCUCUGCUCAGGCCUCCCUAGCACCUCCCCCUAACCAAAUUCUCCCUGGACCCCAUUCUGAGCUCCCCAUCACCAUGGGCAACAGAGGAUUGAGCAUCA
B3: chr13:45957189:45957298:-|CDS|ENSG00000123200|unk|FALSE|unique (ssRNA)
RNA: GGGAGUUCUACAGUCCGACGAUCUGUUUUUGUUUUCUUCAAAUAGGGCACCAUAAAACAAGCUUACACGAGUGCUCCAAUGGUAGACAAUGAAUUACUUCGAUUGAGUCUUCGGUUAUUUAAGCGGAAGACUACUUGCCAUGCCAACAGAGGAUUGAGCAUCA
B4: chr5:138184526:138184629:+|CDS|ENSG00000112984|unk|FALSE|unique (ssRNA)
RNA: GGGAGUUCUACAGUCCGACGAUCGUGCAUGCCCCACCUAUGCAACUGGGAUUCCCAUCCCUGCACUCGUUCAUCAAGGAACAUAGUCUUCAGGUAUCCCCCAGCUUAGAGAAAGGGGCUAAGGCAGACACAGGCCUUGAUGAUCAACAGAGGAUUGAGCAUCA
B5: chr6:113953301:113953428:-|CDS|ENSG00000196591|unk|total|mutant (ssRNA)
RNA: GGGAGUUCUACAGUCCGACGAUCAAAAACCAAAACUUAUGGAUUUGUUUUCAGGUAUCAUCAGAGAGUCUUAUAUAUUGAUACCGAUAUUCAUCAUGGUGAUGGUGUUGAAGAAGCUUUUUAUACAACAGAUCGUGUAAUGACCAACAGAGGAUUGAGCAUCA
B6: ENSG00000093010:stop:overlap|stop_codon|ENSG00000093010|stop_codon|NA|stop_codon (ssRNA)
RNA: GGGAGUUCUACAGUCCGACGAUCGCUGCUGCCCAGAGCCCAUUCAGUCAGCCUCAGCCUCUCCAAAGAGCCAGGCAUUCCAGUAGAGCCCUGUGUGGACACAGCUCGCUCUGGAGGCACCACCUGAGGUCUGGGAGUGUGGGGCAACAGAGGAUUGAGCAUCA
B7: chr4:150265445:150265561:-|3pUTR|ENSG00000198589|unk|FALSE|bound_elsewhere (ssRNA)
RNA: GGGAGUUCUACAGUCCGACGAUCGGAUUAGCAAAGCAGAAAACUGGCUGCUGGGUUCUGUAGUUUUAAAAAAUCUAUAUUUUUAGUCAUAAUGAGAAGUCUAUUUUCACCAAUUAUGGAAACAUACAGUGGAGCAAGUAAACCCAACAGAGGAUUGAGCAUCA
B8: chr17:80395157:80395266:+|3pUTR|ENSG00000173821|unk|FALSE|bound_elsewhere (ssRNA)
RNA: GGGAGUUCUACAGUCCGACGAUCCUUCAAAGCCUUAACUGUCAAAUCUUGCAUUAUCUUGUUUGUACAGAAAUAUACUGGCCUAGCAGAGGCAAAAAAAAAAAAAAUGAAUUUUAUUUUACUUGUCACACCUGUCUUAAUAAACAACAGAGGAUUGAGCAUCA
B9: chr7:158693335:158693439:-|CDS|ENSG00000146918|unk|FALSE|unique (ssRNA)
RNA: GGGAGUUCUACAGUCCGACGAUCAAGGAAACAGAAAGAAGAAUUAUGGCAAAGGCUGAAGAAUUUAUUGACAGAUGUGUUGUUAGAAAGCCCAGUGGAUGGGUGGCAGGUAGUGGAAGCCCAGGGUGAAGACAAUAUGGAAACCAACAGAGGAUUGAGCAUCA
B10: ENSG00000198589:be:win_4251|CDS|ENSG00000198589|bound_else_gene|NA|bound_elsewhere_windowed (ssRNA)
RNA: GGGAGUUCUACAGUCCGACGAUCUAUAUUUGCAAGUUCUCUUGGCUUUACUGAAAUUGAAGCUGAAAAAAGUAUGUCAUCUGGAGGAAUUUUGCGGCAGUGUCUCCGACUAGUUUGUGCAGUCGCAGUAAGGAAUUGCUUGGACAACAGAGGAUUGAGCAUCA
B11: chr4:108667468:108667493:+|3pUTR|ENSG00000198856|msi1_unk|FALSE|overlapping (ssRNA)
RNA: GGGAGUUCUACAGUCCGACGAUCGAAUUUUUUUUCCUGCUGGCCUAUUGCUAUACCAAUGAUGUUGAGUGGCAUUUUCUUUUUAGUUUUUCAUUAAAAUAUAUUCCAUAUCUACAACUAUAAUAUCAAAUAAAGUGAUUAUUUCAACAGAGGAUUGAGCAUCA
B12: chr12:46358264:46358384:-|3pUTR|ENSG00000134294|msi1|total|mutant (ssRNA)
RNA: GGGAGUUCUACAGUCCGACGAUCAAUGUGAUCCCGUGUAAUGGAAGACCUUUGAGAACCUGGGUGUAUUAACUUUGUGUAUACCGUGUAAAUAUCCCCACUGUACUGUCCGAGGCCAACAAUUCCCGUAUGGCUUGUUGGCAACAACAGAGGAUUGAGCAUCA
B13: chr2:218264180:218264222:-|3pUTR|ENSG00000127837|msi1_unk|FALSE|overlapping (ssRNA)
RNA: GGGAGUUCUACAGUCCGACGAUCUUGAGGUUCCCGUUCUUUCCCUUCCCAAGUCUCUGGGGGUGGAAAGGAGGAAGAGAUACUAGUUAAAGAUUUUAAAAAUGUAAAUAAAAUAUACUUCCCAGAGACAGAGUCUGUGUGGAUCAACAGAGGAUUGAGCAUCA
B14: chr5:173316791:173316892:-|3pUTR|ENSG00000113739|msi1|total|mutant (ssRNA)
RNA: GGGAGUUCUACAGUCCGACGAUCGGAAACCUUAUACCCAGAGGAAAAUACACACCUGGGGAGUACAUUUGACAAAUUUCCCUCCGGAUUUCGUUAUCUCACCUUGACCCUCAGCCAAGAUUGGUAAAGCUGCGUCCUGGCGAUCAACAGAGGAUUGAGCAUCA

Target: MSI1 full-length (mouse, UniProt Q61474 1-362)
Sequence of UniProt Q61474 (Q61474 whole entry): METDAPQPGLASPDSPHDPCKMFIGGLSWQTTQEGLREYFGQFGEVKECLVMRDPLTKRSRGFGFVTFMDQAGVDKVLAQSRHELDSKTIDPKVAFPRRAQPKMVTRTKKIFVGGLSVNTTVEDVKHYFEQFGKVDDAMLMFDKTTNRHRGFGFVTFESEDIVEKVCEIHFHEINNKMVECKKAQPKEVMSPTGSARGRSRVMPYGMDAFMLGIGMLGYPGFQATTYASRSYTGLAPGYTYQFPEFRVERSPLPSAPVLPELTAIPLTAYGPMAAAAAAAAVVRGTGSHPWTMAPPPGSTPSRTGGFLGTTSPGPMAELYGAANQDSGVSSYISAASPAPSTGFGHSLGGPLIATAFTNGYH
Test: nsRBNS (natural sequence RNA bind-n-seq); RBNS binding buffer (assumed for nsRBNS): 25 mM Tris pH 7.5, 150 mM KCl, 3 mM MgCl2, 0.01% Triton X-100, 500 ug/ml BSA, 20 U/ml SUPERase-In, 4 C; UNK is unkempt and MSI1 is Musashi-1; names of the RNAs are library labels; protein concentration not given here; high values mean tight binding

Binder	binding signal [enrichment R]
B1	0.379
B2	0.411
B3	0.2
B4	0.612
B5	1.15
B6	0.633
B7	2.28
B8	0.484
B9	1.43
B10	0.39
B11	2.7
B12	0.362
B13	7.93
B14	0.339
